The values that follow come from publication doi:10.1101/148981 (bioRxiv, 2017).

The series concerns the molecule itself. As to the kind of experiment: negative-stain EM.

B1: recombinant CaMKIIα holoenzyme (enzyme)
chain: not shown
As a reminder, the stoichiometry N is the number of molecules, sites or subunits per partner or assembly. With B1, the “stoichiometry N” value amounted to 12.
